# Literature values in publication PMC11006913.
# Substitutions are numbered along the chain they refer to. Some of the results follow.
# Legend:
# Conditions in all cases: PBM; conditions not shown; double strand, one strand shown; scale: upbm affinity estimate (log intensity, higher = more binding, comparable within an allelic series)
# ARX (Homo sapiens) = ARX (Homo sapiens) (UniProt Q96QS3)
# ARX L343Q (Homo sapiens) = ARX L343Q (Homo sapiens) (UniProt Q96QS3)
# ARX P353L (Homo sapiens) = ARX P353L (Homo sapiens) (UniProt Q96QS3)
# ARX P353R (Homo sapiens) = ARX P353R (Homo sapiens) (UniProt Q96QS3)
# ARX R332H (Homo sapiens) = ARX R332H (Homo sapiens) (UniProt Q96QS3)
# ARX T333N (Homo sapiens) = ARX T333N (Homo sapiens) (UniProt Q96QS3)
# ISX (Homo sapiens) = ISX (Homo sapiens) (UniProt Q2M1V0)
# ISX R83Q (Homo sapiens) = ISX R83Q (Homo sapiens) (UniProt Q2M1V0)
# [1] = biological target: PROP1 R99Q (Homo sapiens) (UniProt O75360)
# [2] = biological target: PROP1 R112Q (Homo sapiens) (UniProt O75360)
# [3] = biological target: PITX2 L100Q (Homo sapiens) (UniProt Q99697)
# [4] = biological target: PITX2 R108H (Homo sapiens) (UniProt Q99697)
# [5] = biological target: PITX2 R130W (Homo sapiens) (UniProt Q99697)
# [6] = biological target: PITX2 T114P (Homo sapiens) (UniProt Q99697)
# PBX4 (Homo sapiens) = biological target: T1, PBX4 (Homo sapiens) (UniProt Q9BYU1)
# T1 sequence: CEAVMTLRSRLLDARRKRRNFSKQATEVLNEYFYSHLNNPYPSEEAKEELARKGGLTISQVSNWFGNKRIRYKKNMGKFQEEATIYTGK
# [7] = biological target: T2, PBX4 R215Q (Homo sapiens) (UniProt Q9BYU1)
# T2 sequence: T1 sequence with R19Q
# [8] = biological target: T3, HESX1 E149K (Homo sapiens) (UniProt Q9UBX0)
# T3 sequence: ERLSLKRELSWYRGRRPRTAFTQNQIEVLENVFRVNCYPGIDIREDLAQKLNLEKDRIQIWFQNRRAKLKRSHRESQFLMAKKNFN
# [9] = biological target: T4, HESX1 N125S (Homo sapiens) (UniProt Q9UBX0)
# T4 sequence: T3 sequence with N31S, K55E
# [10] = biological target: T5, HESX1 R160C (Homo sapiens) (UniProt Q9UBX0)
# T5 sequence: T3 sequence with K55E, R66C
# [11] = biological target: HOXD13 I297V (Homo sapiens) (UniProt P35453)
# [12] = biological target: HOXD13 I322L (Homo sapiens) (UniProt P35453)
# [13] = biological target: HOXD13 N298S (Homo sapiens) (UniProt P35453)
# [14] = biological target: HOXD13 Q325K (Homo sapiens) (UniProt P35453)
# [15] = biological target: HOXD13 Q325R (Homo sapiens) (UniProt P35453)
# [16] = biological target: HOXD13 R306W (Homo sapiens) (UniProt P35453)
# [17] = biological target: HOXD13 S316C (Homo sapiens) (UniProt P35453)
sequence,measurement,setting,value
AATTAGCC [8-mer AATTAGCC],binding signal,ARX (Homo sapiens),12.7
same,binding signal,ARX L343Q (Homo sapiens),10.7
same,binding signal,ARX P353L (Homo sapiens),12.3
same,binding signal,ARX P353R (Homo sapiens),10.6
same,binding signal,ARX R332H (Homo sapiens),10.7
same,binding signal,ARX T333N (Homo sapiens),11.8
same,binding signal,ISX (Homo sapiens),14.8
same,binding signal,ISX R83Q (Homo sapiens),13.4
same,binding signal,[1],12.1
CTAATTTA [8-mer CTAATTTA],binding signal,ARX (Homo sapiens),12.6
same,binding signal,ARX L343Q (Homo sapiens),10.7
same,binding signal,ARX P353L (Homo sapiens),12.2
same,binding signal,ARX P353R (Homo sapiens),10.7
same,binding signal,ARX R332H (Homo sapiens),10.8
same,binding signal,ARX T333N (Homo sapiens),11.7
same,binding signal,ISX (Homo sapiens),14.8
same,binding signal,ISX R83Q (Homo sapiens),13.3
same,binding signal,[2],12.5
same,binding signal,[1],11.9
GGGCGCCC [8-mer GGGCGCCC],binding signal,ARX (Homo sapiens),9.95
same,binding signal,ARX L343Q (Homo sapiens),10.1
same,binding signal,ARX P353L (Homo sapiens),10
same,binding signal,ARX P353R (Homo sapiens),9.97
same,binding signal,ARX R332H (Homo sapiens),10.1
same,binding signal,ARX T333N (Homo sapiens),10.2
same,binding signal,[3],8.03
same,binding signal,[4],7.88
same,binding signal,[5],7.67
same,binding signal,[6],7.92
CGTCCCGC [8-mer CGTCCCGC],binding signal,ARX (Homo sapiens),9.96
same,binding signal,ARX L343Q (Homo sapiens),10.1
same,binding signal,ARX P353L (Homo sapiens),10
same,binding signal,ARX P353R (Homo sapiens),10.1
same,binding signal,ARX R332H (Homo sapiens),10
same,binding signal,ARX T333N (Homo sapiens),10.1
same,binding signal,ISX (Homo sapiens),9.79
same,binding signal,ISX R83Q (Homo sapiens),9.68
same,binding signal,[2],10.7
same,binding signal,[1],10.8
AATTACTG [8-mer AATTACTG],binding signal,ARX (Homo sapiens),12.6
same,binding signal,ARX L343Q (Homo sapiens),11
same,binding signal,ARX P353L (Homo sapiens),12.1
same,binding signal,ARX P353R (Homo sapiens),10.9
same,binding signal,ARX R332H (Homo sapiens),11
same,binding signal,ARX T333N (Homo sapiens),11.7
same,binding signal,[1],12.2
CACGCGGG [8-mer CACGCGGG],binding signal,ARX (Homo sapiens),10.1
same,binding signal,ARX L343Q (Homo sapiens),10.1
same,binding signal,ARX P353L (Homo sapiens),10.1
same,binding signal,ARX P353R (Homo sapiens),10
same,binding signal,ARX R332H (Homo sapiens),10.1
same,binding signal,ARX T333N (Homo sapiens),10.2
same,binding signal,ISX (Homo sapiens),9.73
same,binding signal,ISX R83Q (Homo sapiens),9.68
same,binding signal,[3],8.07
same,binding signal,[4],8.07
same,binding signal,[5],7.91
same,binding signal,[6],8.05
AATGAATT [8-mer AATGAATT],binding signal,ARX (Homo sapiens),11.8
same,binding signal,ARX L343Q (Homo sapiens),10.7
same,binding signal,ARX P353L (Homo sapiens),11.5
same,binding signal,ARX P353R (Homo sapiens),10.6
same,binding signal,ARX R332H (Homo sapiens),10.9
same,binding signal,[2],12.2
CGGGCTCC [8-mer CGGGCTCC],binding signal,ARX (Homo sapiens),9.66
same,binding signal,ARX L343Q (Homo sapiens),9.9
same,binding signal,ARX P353L (Homo sapiens),9.83
same,binding signal,ARX P353R (Homo sapiens),9.87
same,binding signal,ARX R332H (Homo sapiens),9.88
same,binding signal,ARX T333N (Homo sapiens),9.95
same,binding signal,ISX (Homo sapiens),9.44
same,binding signal,ISX R83Q (Homo sapiens),9.54
same,binding signal,[3],7.75
same,binding signal,[4],7.81
same,binding signal,[5],7.76
same,binding signal,[6],7.83
CGAGGCCC [8-mer CGAGGCCC],binding signal,ARX (Homo sapiens),10.2
same,binding signal,ARX L343Q (Homo sapiens),10.1
same,binding signal,ARX P353L (Homo sapiens),10.3
same,binding signal,ARX P353R (Homo sapiens),10.1
same,binding signal,ARX R332H (Homo sapiens),10.2
same,binding signal,ARX T333N (Homo sapiens),10.2
same,binding signal,ISX (Homo sapiens),9.75
same,binding signal,ISX R83Q (Homo sapiens),9.8
GATGCCCC [8-mer GATGCCCC],binding signal,ARX (Homo sapiens),10.2
same,binding signal,ARX L343Q (Homo sapiens),10.2
same,binding signal,ARX P353L (Homo sapiens),10.1
same,binding signal,ARX P353R (Homo sapiens),10.2
same,binding signal,ARX R332H (Homo sapiens),10.2
same,binding signal,ARX T333N (Homo sapiens),10.2
same,binding signal,PBX4 (Homo sapiens),9.84
same,binding signal,[7],9.77
ATCAATTC [8-mer ATCAATTC],binding signal,ARX (Homo sapiens),11.2
same,binding signal,ARX L343Q (Homo sapiens),10.7
same,binding signal,ARX P353R (Homo sapiens),10.6
ATCCATCA [8-mer ATCCATCA],binding signal,ARX (Homo sapiens),11
same,binding signal,PBX4 (Homo sapiens),10.8
same,binding signal,[7],10.2
ATTATTCC [8-mer ATTATTCC],binding signal,ARX (Homo sapiens),11.6
same,binding signal,ARX L343Q (Homo sapiens),10.8
same,binding signal,ARX P353R (Homo sapiens),10.7
same,binding signal,ARX R332H (Homo sapiens),10.9
CTCATTAA [8-mer CTCATTAA],binding signal,ARX P353L (Homo sapiens),12.5
same,binding signal,[8],11
same,binding signal,[9],10.9
same,binding signal,[10],10.3
same,binding signal,[11],12.2
same,binding signal,[12],11.4
same,binding signal,[13],12.6
same,binding signal,[14],10.9
same,binding signal,[15],12
same,binding signal,[16],11.4
same,binding signal,[17],12.2
same,binding signal,ISX (Homo sapiens),14.8
same,binding signal,ISX R83Q (Homo sapiens),13.4
